# According to PubChem BioAssay AID2100 (National Center for Advancing Translational Sciences (NCATS), 2009):
# Screen size: about 300,000 compounds; about 1,200 (0.4%) were called active. Inconclusive means that the source gave no clear call. Such entries were picked first, then a sample of the others. Calls come from the whole dose curve; as a rule, active = well fitted inhibition curve with a large enough effect; inconclusive = small, poorly fitted or top-dose-only effect, or another doubt; inactive = no such curve, though single readings can be large or run the other way. A potency beside an inconclusive call is a rough fit, not a confirmed value.
# Molecular target: Lysosomal alpha-glucosidase (Homo sapiens) (UniProt P10253)
# Test: qHTS Assay for Inhibitors and Activators of Human alpha-Glucosidase Cleavage of Glycogen;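 for activity change, negative = inhibition: 0% = full enzyme reaction and -100% = no-enzyme basal signal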
# Conditions: recombinant GAA, glycogen substrate, Amplex Red glucose oxidase fluorescence; activity change, negative = inhibition: at 76.4 µM (top of the series) unless noted
# How it was run: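 qHTS, 1536-well; enzyme 4 nM final; cpd up to 77 uM; substrate bovine liver glycogen 30 ug; 50 mM citrate/phosphate pH 5.0, 0.01% Tween-20; 37 C, 40 min; Amplex Red detection 45 min RT; Hill fit → AC50.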
# Potency is the fitted concentration of half-maximal effect.
SMILES,Potency,"activity change, negative = inhibition"
CC1CCCC(NC(=O)Nc2cccs2)C1C (stereo not drawn),active: 14 µM,–
CCOC(=O)c1c(C)oc2c1c(C(c1ccncc1)N1CCOCC1)c(O)c1ccccc12 (stereo not drawn),"inconclusive: 22.2 µM [inhibitor, partial curve]",–
c1ccc(CN2CCC3(CC2)Nc2ccccc2S3)cc1,"inconclusive: 35.5 µM [inhibitor, single point]",–
CCCCCCN1C=CC(=C2C(=O)c3ccccc3C2=O)C=C1,"inconclusive: 24.9 µM [activator, single point]",–
CCOc1ccc(/C=N/Nc2ccccn2)cc1OC,"inconclusive: 12.6 µM [inhibitor, partial curve]",–
Cc1ccc(CNc2ccc(O)cc2)cc1,"inconclusive: 28 µM [activator, partial curve]",–
CCN(CC)c1ccc(/C=N/NC(=O)c2cnccn2)cc1,"inconclusive: 25.1 µM [inhibitor, partial curve]",–
O=c1[nH]nc(CNc2ccc(O)cc2)c2ccccc12,"inconclusive: 14.1 µM [inhibitor, partial curve]",–
Oc1ccccc1C1CC(c2cccs2)=NC(c2ccc(Cl)cc2)N1 (stereo not drawn),"inconclusive: 19.8 µM [activator, partial curve]",–
COc1ccc(C2=[N+]([O-])C(C)(C)N(O)C2C)cc1 (stereo not drawn),"inconclusive: 50.1 µM [inhibitor, single point]",–
CC(=O)Oc1cc2c(C(=O)NCCCN3CCOCC3)c(C)oc2c2ccccc12,"inconclusive: 35.2 µM [inhibitor, single point]",–
O=C(c1cccc2cccc(O)c12)N1CCCCC1,active: 25.1 µM,–
C/C(CCc1ccco1)=N\NC(=O)CNc1cccc2ccccc12,"inconclusive: 10 µM [inhibitor, partial curve]",–
CCc1cc(-c2n[nH]c(=S)n2Cc2ccccc2)cs1,"inconclusive: 31.4 µM [inhibitor, single point]",–
CCOC(=O)c1cnc2ccc(C(=O)OC)cc2c1Nc1ccc(N2CCOCC2)cc1,"inconclusive: 10 µM [inhibitor, full curve]",–
COc1ccc(/C=C/C(=O)NNc2cc(=O)n(C)c(=O)n2C)cc1OC,"inconclusive: 8.91 µM [inhibitor, partial curve]",–
Cc1nc(C#N)c(N/N=C/c2c(F)cccc2Cl)o1,"inconclusive: 28.2 µM [inhibitor, partial curve]",–
Cc1nn(-c2ccccc2)c2nc(C3CC3)cc(C(=O)NCc3ccccc3Cl)c12,"inconclusive: 3.55 µM [inhibitor, partial curve]",–
COC(=O)C1(O)CC(CC(C)C)=NN1C(=O)c1ccccc1 (stereo not drawn),"inconclusive: 20 µM [inhibitor, partial curve]",–
CCOc1ccccc1Nc1ccc(C(=O)O)cc1N,"inconclusive: 6.31 µM [inhibitor, partial curve]",–
N#Cc1c(/N=C/c2cccs2)sc2c1CCC2,"inconclusive: 28.2 µM [inhibitor, single point]",–
COC(=O)/C(N=Nc1c(C)n(C)n(-c2ccccc2)c1=O)=C(\C)O,"inconclusive: 7.08 µM [inhibitor, full curve]",–
CCN1C(=S)SC(=O)C1=C1C=C(C)N(CCO)C(C)=C1,"inconclusive: 50.1 µM [inhibitor, single point]",–

SMILES,Potency,"activity change, negative = inhibition"
C(=N\N1CCN(c2ccccn2)CC1)/c1ccccn1,"inconclusive: 31.4 µM [inhibitor, partial curve]",–
COC(=O)c1ccc(C(=O)OCCCc2nc3ccc(N)cc3[nH]2)cc1,"inconclusive: 44.7 µM [inhibitor, partial curve]",–
CCCOc1ccc(C2=NC(c3ccc(F)cc3)=Nc3ccc(OC)cc3N2)cc1,–,inactive: 11.8% [at 76.3 µM]
CCc1cc(-c2n[nH]c(C)c2-c2nc3ccccc3n2C)c(O)c(CN2CCN(C)CC2)c1O,active: 8.91 µM,–
C=CCNC(=S)NNc1nc2c(c(=O)[nH]1)C1(CCCC1)Cc1ccccc1-2,"inconclusive: 28 µM [inhibitor, partial curve]",–
CC(C)(C)c1ccc(OCC(=O)NNC(=O)CCc2ccccc2)cc1,"inconclusive: 31.4 µM [inhibitor, single point]",–
CC1=Nc2cc(C(=O)NCCc3ccc(Cl)cc3)ccc2Sc2c(C)ccc(C)c21,–,inactive: 0.025% [at 76.3 µM]
NNC(=O)c1snnc1-c1ccccc1,"inconclusive: 17.8 µM [inhibitor, partial curve]",–
Cc1ccsc1/C=N/Nc1ncc(Cl)cc1Cl,"inconclusive: 17.8 µM [inhibitor, partial curve]",–
O=C(CCl)Nc1ccc2c(c1)OCO2,–,inactive: 1.3%
CC(C)(C)C1CCC2(CC1)C(C#N)=C(SCC(=O)Nc1ccccc1)NC(=O)C2C#N (stereo not drawn),"inconclusive: 25.1 µM [inhibitor, partial curve]",–
COc1cc(C(=O)N/N=C(\C)c2ccc(NC(=O)Cc3ccccc3)cc2)ccc1O,"inconclusive: 25.1 µM [inhibitor, partial curve]",–
CCOc1ccc2c(c1)n([O-])c1c([n+]2=O)CCCC1,–,inactive: -4.06%
S=c1nc(-c2ccccc2Br)[nH][nH]1,"inconclusive: 31.6 µM [inhibitor, partial curve]",–
CC1(C)CC2(CC(c3ccccc3F)c3ccc(O)c(O)c3O2)NC(=S)N1 (stereo not drawn),"inconclusive: 4.47 µM [inhibitor, full curve]",–
Oc1ccc(/C=N/Nc2nc(N3CCCC3)nc(N3CCCC3)n2)cc1O,"inconclusive: 39.5 µM [inhibitor, single point]",–
O=C(O)c1c2c(nc3ccc(S(=O)(=O)N4CCC(C(=O)NC5CCCC5)CC4)cc13)CCCCC2,"inconclusive: 39.5 µM [inhibitor, single point]",–
CCOC(=O)c1cccc2c1N[C@@H](c1ccc(F)cc1)[C@H]1CC=C[C@@H]21,"inconclusive: 35.5 µM [activator, single point]",–
Cc1ccc(C)n1/N=C1/NC(=O)CS1,"inconclusive: 14.1 µM [activator, partial curve]",–
COc1ccc(NC(=S)Nc2cccc(Cl)c2Cl)cc1OC,"inconclusive: 28.2 µM [inhibitor, single point]",–
Cc1ccc(C=C2C(=O)c3ccccc3C2=O)s1,–,inactive: -7.78%
CC1Cc2cc(S(=O)(=O)NCc3ccc(N(C)C)cc3)ccc2N1C(=O)C1CCC1 (stereo not drawn),"inconclusive: 31.6 µM [inhibitor, partial curve]",–
CCN1CCN(C(CC(C)C)c2nnnn2CS(=O)(=O)c2ccc(C)cc2)CC1 (stereo not drawn),–,inactive: 9.2%

SMILES,Potency,"activity change, negative = inhibition"
Cc1cc(C(c2nnnn2Cc2ccccc2)N2CCOCC2)c(C)n1-c1ccc2c(c1)OCO2 (stereo not drawn),"inconclusive: 39.5 µM [inhibitor, partial curve]",–
Cc1cccc(COc2ccccc2/C=N/Nc2ccc([N+](=O)[O-])cc2)c1,"inconclusive: 24.9 µM [inhibitor, single point]",–
COc1cc(Br)cc(CNc2ccc(F)c([N+](=O)[O-])c2)c1O,"inconclusive: 17.8 µM [inhibitor, single point]",–
O=C(N/N=C/c1ccc(Br)cc1)c1cc[n+](Cc2ccccc2)cc1,"inconclusive: 15.8 µM [inhibitor, partial curve]",–
CCOc1ccccc1OCC(=O)NNC(=S)NC1CCCCC1,"inconclusive: 39.8 µM [inhibitor, single point]",–
O=S1(=O)CCN2C=Nc3sc4c(c3C2=N1)CCCC4,"inconclusive: 25.1 µM [inhibitor, single point]",–
COc1ccc(O)c(-c2cc(-c3ccccc3[N+](=O)[O-])[nH]n2)c1,"inconclusive: 28 µM [inhibitor, partial curve]",–
CCOC(=O)C1=C(C)NC2=C(C(=O)C(C(=O)OC)C(C)C2)C1c1ccc(OC)c(O)c1 (stereo not drawn),"inconclusive: 22.4 µM [inhibitor, partial curve]",–
CCCc1ccc(Oc2cn[nH]c2-c2ccc(O)cc2O)cc1,"inconclusive: 17.6 µM [inhibitor, partial curve]",–
CC(C)CC1Nc2ccc(C(=O)NCCCOC(C)C)cc2NC1=O (stereo not drawn),"inconclusive: 8.91 µM [inhibitor, partial curve]",–
O=c1cc(CN2CCOCC2)c2ccc(O)c(O)c2o1,"inconclusive: 3.55 µM [inhibitor, partial curve]",–
CCc1ccccc1NC(=O)Cn1cc2c(n1)CCC(C)C2 (stereo not drawn),–,inactive: -2.37% [at 76.3 µM]
CC(C)C1Cc2c(sc3ncnc(NN)c23)CO1 (stereo not drawn),"inconclusive: 50.1 µM [inhibitor, single point]",–
COc1ccc(Nc2nc(-c3c[nH]c4ccccc34)cs2)cc1,"inconclusive: 15.8 µM [inhibitor, partial curve]",–
COc1cc(/C=N/NC(=S)NC2CC3CCC2C3)ccc1O (stereo not drawn),"inconclusive: 3.98 µM [inhibitor, partial curve]",–
COc1ccc(C2=NNC(c3cc(Cl)cc4c3OCOC4)C2)c(O)c1 (stereo not drawn),"inconclusive: 39.8 µM [activator, partial curve]",–
NC(=S)N/N=C/c1ccccc1OC(=O)/C=C/c1ccccc1,"inconclusive: 39.8 µM [inhibitor, single point]",–
c1ccc2c(c1)Nc1ccncc1S2,active: 17.6 µM,–
CN(C(=O)CSc1nc2ccc(NC(=O)COc3ccccc3)cc2s1)c1ccccc1,–,inactive: -5.51% [at 76.3 µM]
Cc1cccc2nc(-c3cccnc3)c(Nc3ccccc3)n12,"inconclusive: 3.98 µM [inhibitor, full curve]",–
O=S(=O)(NCCO)c1ccc2c(c1)Cc1cc(S(=O)(=O)NCCO)ccc1-2,–,inactive: -0.4%
COc1cc(CNc2cccc(F)c2)cc(Br)c1O,"inconclusive: 39.8 µM [inhibitor, partial curve]",–
